In all, about 46,000 compounds went through this assay and about 60 (0.1%) were called active. Roughly 3% stayed inconclusive and do not appear here. Calls come from the whole dose curve; as a rule, active = well fitted inhibition curve with a large enough effect; inconclusive = small, poorly fitted or top-dose-only effect; inactive = no such curve, though single readings can be large or run the other way. Some of the results follow. Residues, ends and D or L forms follow the SMILES beside them. *: point of attachment. Cbz = O=C(OCc1ccccc1)*
assay: Primary qHTS assay for Inhibitors of ovarian cancer metastasis using an organotypic tumor microenvironment (TME) model.; note: nearly all actives have a fitted effect of over 65% in size;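 for activity change, negative = inhibition: plate controls were DMSO wells for no effect and tomatine positive control wells for full effect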; conditions: SKOV3ip1-GFP adhesion/invasion on 3D omental model, fluorescence; series mostly up to 45.8 µM; activity change, negative = inhibition: at the top concentration
Summary of the method: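 A 3D layer of primary human omental fibroblasts, mesothelial cells, fibronectin and collagen I, grown 48 hr, received SKOV3ip1-GFP cells in serum-free medium plus compounds at 0.36-46 umol/L. After 2 hr RT and 16 hr 37 C, fixed adherent GFP cells were counted; normalized to DMSO and tomatine.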

Activity change, negative = inhibition, inactive:
CCOc1ccc(NC(=O)CC2C(=O)N(c3cccc(C)c3)C(=O)N2Cc2cccs2)cc1 (centres undefined) -2.15%
CCCN1CCN(CCCNC(=O)c2ccc3nc(Cc4ccccc4)oc3c2)CC1 -10.8%
COc1ccc(-c2cc3nc(C4CCN(C(=O)OC(C)(C)C)CC4)c(C(=O)Nc4cc(C)cc(C)c4)cn3n2)cc1 10.2%
CCC(Sc1nnc2c3ccccc3n(CC)c2n1)C(=O)Nc1nnc(C(C)C)s1 (centres undefined) -11%
Cn1c(=O)cc(SCC(=O)N2CCN(c3ccccc3F)CC2)c2ccccc21 -4.87%
COc1ccc2c(CNCCc3cccs3)c(C(=O)O)n(Cc3ccc(F)cc3Cl)c2c1 -12.8%
Cc1cc(C)cc(NC(=O)CCCc2nc(-c3ccco3)no2)c1 -1.01%
Cc1cc(-n2c(C)nc3ccccc3c2=O)ccc1NC(=O)c1ccccc1[N+](=O)[O-] -8.61%
COc1ccc(C)cc1NC(=O)c1cc(S(=O)(=O)N2CCCCC2)c[nH]1 -3.41%
COc1cc(NC(=O)CCc2c(C)nn(-c3ccc(N4CCCCC4)nn3)c2C)cc(OC)c1OC 33.6%
O=C(CCSCc1cccc(F)c1)NCCc1ccccc1 -1.12%
Cc1ccc(-n2ncc3c(NCCc4ccccc4)ncnc32)cc1Cl 0.939%
O=C(COCc1cc(-c2ccc(F)cc2)on1)Nc1cc(Cl)cc(Cl)c1 -7.07%
O=C(CCSCCc1ccccn1)Nc1ccccc1C(F)(F)F -10.7%
Cc1ccc2c(=O)c(C(=O)c3cccc(Cl)c3)cn(CC(=O)NCc3ccccc3)c2n1 1.8%
COc1cccc(OCCn2c(-c3ccc(Cl)cc3)nc3ccccc3c2=O)c1 2.67%
CCC(CC)C(=O)Nc1cccc(-c2cn3cccnc3n2)c1 2.42%
COc1cccc(Cn2c(=O)n(-c3cc(C)cc(C)c3)c(=O)c3oc4ccccc4c32)c1 -6.77%
COCCCNc1oc(-c2ccc(COc3ccccc3C)o2)nc1C#N 0.431%
Cc1ccc(N2CCN(S(=O)(=O)c3nnc(NC(=O)c4cccc(F)c4)s3)CC2)cc1 2.41%
CCc1ccc(C2=CC(c3cccc(OC)c3OC)n3c(nc4ccccc43)N2)cc1 (centres undefined) 13.3%
COc1ccc(CCNC(=O)Cn2c(=O)cc(C(F)(F)F)c3c(C)nn(C)c32)c(OC)c1 3.62%
CCOc1cc(CNC(=O)c2cc(-c3ccc(Cl)s3)nc3ccccc23)ccc1OC -6.59%
COc1ccc(NC(=O)CNC(=O)Cn2ccc3ccccc3c2=O)c(OC)c1 3.38%
CCCN1CCN(CCCNC(=O)c2cc3c(=O)[nH]c4ccccc4c3s2)CC1 -12%
O=C(Cn1cccc1C(=O)c1ccccc1)NCc1ccc(Cl)cc1 6.8%
CC(C)C[C@@H](C=O)NC(=O)[C@H](CC(C)C)NC(=O)[C@H](CC(C)C)NC(=O)OCc1ccccc1 (Cbz-Leu-Leu-Leu-aldehyde) -23.7%
Cc1cc(C)c2c(NC(=O)c3ccccc3Cl)c(C(=O)Nc3ccc(C)c(C)c3)sc2n1 3.19%
Cc1ccc(CNC(=O)c2cnc(N3CCCC3)nc2C)cc1 5.36%
C[C@@H]1[C@H](C)CC[C@]2(C(=O)O)CC[C@]3(C)C(=CC[C@@H]4[C@@]5(C)C[C@@H](O)[C@H](O)[C@@](C)(CO)[C@H]5CC[C@]43C)[C@@H]12 -3.83%
CCC1=Nc2cc(C(=O)NC3CCCC3)ccc2Sc2ccc(Cl)cc21 1.95%
COC(=O)c1ccc(NC(=O)C(C)N2Cc3ccccc3C2=O)cc1 (centres undefined) 7.2%
COc1ccc(N2CCN(C(=O)c3c(C)oc4ncn(CC(C)C)c(=O)c34)CC2)cc1 -0.554%
Cc1ccc2nc3sc(C(=O)Nc4ccc(F)cc4)cc3cc2c1 -8.46%
CCOC(=O)c1cc(S(=O)(=O)N2CCN(c3cccc(C)c3)C(C)C2)[nH]n1 (centres undefined) 4.29%
CCn1cc(C(=O)N2CCN(c3ccccc3OC)CC2)c2cc(OC)c(OC)cc2c1=O 13.5%
CCC(Oc1ccccc1)C(=O)Nc1nnc(S(=O)(=O)N2CCCC2)s1 (centres undefined) 2.31%
OC[C@H]1O[C@@H](n2cnc3c2NC=NC[C@@H]3O)C[C@H]1O 4.68%
CCOc1ccc(CCNc2ncnc3onc(C)c23)cc1OCC 6.53%
CCOC(=O)c1c(NC(=O)C(C)Oc2ccccc2F)sc(C(C)=O)c1C (centres undefined) 0.664%
COc1ccc(CCNC(=O)CCCCn2c(=O)c3ccccc3n(Cc3cccc(C)c3)c2=O)cc1OC -10.6%
CCOC(=O)c1cnc2c(OC)cccc2c1N1CCN(c2ccccc2F)CC1 -1.04%
COc1ccc(CNC(=O)c2ccc(-c3nc(CSc4ccccc4)c(C)o3)cc2)cc1 -13.2%
COc1ccc(NC(=O)c2oc3ccccc3c2NC(=O)c2cc(=O)c3ccccc3o2)cc1 2.46%
COc1ccc(C(=O)Nc2ccc3c(c2)CCCN3S(=O)(=O)c2ccc(C)cc2)cc1 -11.2%
CCc1ccc(-c2nc(CN3CCCC(C(=O)NCc4ccccc4Cl)C3)c(C)o2)cc1 (centres undefined) 8.2%

outcome, inactive:
Cc1ccc(N2CC(C(=O)NCCS(=O)(=O)N3CCN(c4ccc(F)cc4)CC3)CC2=O)cc1 (centres undefined)
COc1ccc(CCNC(=O)c2cc(-c3ccc(C)cc3)nc3n[nH]c(-c4ccc(F)cc4)c23)cc1OC
CCc1ccccc1NC(=O)Cn1cc(C(=O)c2ccncc2)c(=O)c2cc(C)ccc21
CC1=C(C(=O)Nc2cccc(F)c2)C2(CCCCCC2)OC1=O
COc1cc(OC)c(NC(=O)Cn2c(=O)nc(-c3ccccc3)c3ccccc32)cc1Cl
CN(C(=O)CSc1nc2ccc(NC(=O)c3ccco3)cc2s1)c1ccccc1
CCc1ccccc1NC(=O)c1nnn(CC(=O)Nc2c(C)cc(C)cc2C)c1N
CCOc1cccc2sc(=NC(=O)c3ccc(S(=O)(=O)N4CCOCC4)cc3)n(C)c12
CCc1ccc(OCC(=O)Nc2c(C(=O)c3ccc(Br)cc3)oc3ccccc23)cc1
CCc1ccc(NC(=O)c2ccc(CNS(=O)(=O)c3ccc4c(c3)C(C)(C)C(=O)N4C)cc2)cc1
CCCCN(CCCC)CCn1cnc2c([nH]c3ccc(OC)cc32)c1=O
Cc1ccc2c(c1)-c1nc(-c3ccccc3)cc(-c3ccccc3)c1CO2
O=C(NC1CCCC1)c1ccc2c(c1)N(Cc1c(F)cccc1Cl)C(=O)c1ccccc1S2

From PubChem BioAssay AID1963576 (National Center for Advancing Translational Sciences (NCATS), 2024)
